From PMC4336329 (PLoS ONE, 2015)
Among all 310,000 compounds or so, about 14,000 (4.5%) showed an effect of 50% or more. The effect is printed as a negative number. The list shows a part of the results.

target: human ether-à-go-go-related gene (hERG) potassium channel (human, UniProt Q12809); experiment: primary screen, population patch clamp on CHO cells stably expressing hERG
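Further: peak tail current of the secondary pulse compared with the same well before compound.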

human ether-à-go-go-related gene (hERG) potassium channel, sequence (Q12809 whole entry, looked up): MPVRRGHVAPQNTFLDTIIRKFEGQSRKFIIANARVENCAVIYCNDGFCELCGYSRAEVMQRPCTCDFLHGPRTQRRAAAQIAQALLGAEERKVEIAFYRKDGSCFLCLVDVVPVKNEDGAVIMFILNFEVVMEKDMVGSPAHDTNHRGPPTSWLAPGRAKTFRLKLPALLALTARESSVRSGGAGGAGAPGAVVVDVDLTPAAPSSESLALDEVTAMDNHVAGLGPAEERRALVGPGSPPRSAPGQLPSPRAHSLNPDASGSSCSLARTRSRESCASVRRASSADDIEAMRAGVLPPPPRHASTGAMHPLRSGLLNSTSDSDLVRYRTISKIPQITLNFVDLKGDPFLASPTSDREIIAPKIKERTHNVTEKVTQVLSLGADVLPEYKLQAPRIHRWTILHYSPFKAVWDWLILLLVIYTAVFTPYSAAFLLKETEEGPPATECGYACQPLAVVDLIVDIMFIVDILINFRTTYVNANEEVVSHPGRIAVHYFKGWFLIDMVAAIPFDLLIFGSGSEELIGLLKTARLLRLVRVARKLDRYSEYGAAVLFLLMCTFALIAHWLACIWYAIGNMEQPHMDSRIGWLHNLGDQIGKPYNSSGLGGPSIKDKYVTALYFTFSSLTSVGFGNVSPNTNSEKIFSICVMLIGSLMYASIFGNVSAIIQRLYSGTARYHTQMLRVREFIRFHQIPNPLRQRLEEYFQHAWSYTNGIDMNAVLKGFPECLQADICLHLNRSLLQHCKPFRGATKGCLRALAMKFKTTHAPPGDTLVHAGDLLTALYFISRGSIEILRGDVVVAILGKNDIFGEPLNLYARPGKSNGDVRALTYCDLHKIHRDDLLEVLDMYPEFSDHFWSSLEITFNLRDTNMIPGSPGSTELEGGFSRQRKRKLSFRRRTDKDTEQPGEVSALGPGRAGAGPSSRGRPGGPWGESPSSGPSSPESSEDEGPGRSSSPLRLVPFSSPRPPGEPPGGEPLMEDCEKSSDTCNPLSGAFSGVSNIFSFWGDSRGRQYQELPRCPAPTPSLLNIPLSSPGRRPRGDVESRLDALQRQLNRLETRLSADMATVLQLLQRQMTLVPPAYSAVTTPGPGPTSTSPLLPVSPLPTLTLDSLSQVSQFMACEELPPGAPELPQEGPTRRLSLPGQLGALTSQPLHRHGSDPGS

Row | SMILES | hERG current change (%, negative = inhibition) at 10uM
1 | Cc1ccccc1-n1c(SCc2cccc(F)c2)nc2[nH]ncc2c1=O | -26%
2 | Nc1ccn(CC(=O)NCc2ccc3[nH]ccc3c2)c(=O)n1 | 20.5%
3 | COCCN(C(=S)Nc1ccccc1OC)C1CCN(C(C)=O)CC1 | 9.71%
4 | Cc1ccc(Cc2nnc(SCC(=O)Nc3c(C)cccc3C)[nH]c2=O)cc1 | -9.17%
5 | Cc1ccccc1OCCn1cc(/C=C(\C#N)C(=O)NCc2ccco2)c2ccccc21 | 3.64%
6 | N#CCC(=O)Nc1ccc(C(=O)OCC(=O)Nc2ccccc2Sc2ccccc2)cc1 | 5.7%
7 | COCC(=O)Nc1nc2n(n1)C(c1ccc(Cl)cc1)CC(c1ccc(OC)cc1)N2 (stereo not drawn) | -73.8%
8 | COc1cc(/C=C/C(=O)OCC(=O)Nc2ccc([N+](=O)[O-])cc2)ccc1O | -18.9%
9 | Cc1[nH]c2ccccc2c1C(c1ccncc1)N1CCN(c2ccccn2)CC1 (stereo not drawn) | 8.61%
10 | CCOc1ccc(-c2noc(=O)[nH]2)cc1 | -2.85%
11 | CCc1ccccc1NC(=S)N(CCN1CCOCC1)C1CCN(C(C)=O)CC1 | 21.9%
12 | CCc1ccccc1N(CC)C(=O)c1cn(CC)c(=O)c2cc(OC)c(OC)cc12 | 4.01%
13 | COc1cccc(/C=N/NC(=O)c2nnn(-c3nonc3N)c2C(C)C)c1 | 11.4%
14 | C/C(CC(C)(C)c1ccccc1)=N\NS(=O)(=O)c1ccccc1 | 13.9%
15 | CCC(C)(C)NC(=O)C(c1ccccc1Cl)N(C(=O)CCC(=O)Nc1cc(C)on1)C(C)(C)C (stereo not drawn) | -5.44%
16 | O=S1(=O)C[C@@H](N2CCOCC2)[C@H](N2CCOCC2)C1 | 13.3%
17 | O=[N+]([O-])c1ccc(Nc2ccccc2O)c2nonc12 | 8.01%
18 | CC(=O)N(c1ccccc1)c1ccc([N+](=O)[O-])cc1[N+](=O)[O-] | -21%
19 | CCOc1ccccc1NC(=O)c1nnn(-c2ccc3c(c2)OCCO3)c1N | 15.4%
20 | COC(=O)c1cc(NC(=O)Cc2ccc(OC)c(OC)c2)cc(C(=O)OC)c1 | 7.39%
21 | COc1ccc(-c2nnc(SCC#CCO)o2)cc1OC | 4.93%

Row | SMILES | hERG current change (%, negative = inhibition) at 10uM
22 | O=C(NCCN1C(=O)C2C3C=CC(C3)C2C1=O)Nc1cccnc1 (stereo not drawn) | 9.06%
23 | Oc1ccccc1N1CCN(C(=S)NCc2ccccc2)CC1 | -18.2%
24 | Cc1noc(C)c1COc1ccc(C(=O)NNC(=O)c2ccccc2F)cc1 | -2.81%
25 | COc1ccccc1CN(Cc1cc2cc(C)cc(C)c2[nH]c1=O)Cc1nnnn1CC1CCCO1 (stereo not drawn) | -6.19%
26 | CCOC(=O)C1CCN(S(=O)(=O)Cc2ccc(Cl)cc2)CC1 | 1.25%
27 | COc1ccc(CNC(=O)[C@H](C)NC(=O)N2CCn3c2nc2ccccc23)cc1 | -57.7%
28 | Cc1ccc2nc(NC(=O)CN3C(=O)C4CC=CCC4C3=O)sc2c1 (stereo not drawn) | 2.18%
29 | CCC(C)/C=C(C)/C=C/C1=CC2=C(Cl)C(=O)C(C)(OC(C)=O)C(=O)C2=CO1 (stereo not drawn) | 4.55%
30 | COc1ccc2c(c1)CC/C(=C/c1cc(OC)c(OC)c(OC)c1)C2=O | -1.54%
31 | CN(CCCNC(=O)CN1C(=O)CC(C)(C)S(=O)(=O)c2ccccc21)C1CCCCC1 | 3.34%
32 | CSCCOC(=O)C1=C(C)Nc2ccc(C)cc2S1 | -10%
33 | COc1cccc(N(C(=O)c2snc(C(N)=O)c2N)C(C(=O)NCc2ccccc2)c2ccc(O)cc2)c1 (stereo not drawn) | -37.2%
34 | CC1(C)C([N+](=O)[O-])C(c2ccc(F)cc2)NC(c2ccc(F)cc2)C1[N+](=O)[O-] (stereo not drawn) | 15.1%
35 | O=C(NC(=S)NCCN1CCOCC1)c1ccccc1Br | 3.35%
36 | CC(=O)NC1CCCN(O)C(=O)/C=C(\C)CCOC(=O)C(NC(C)=O)CCCN(O)C(=O)/C=C(\C)CCOC(=O)C(NC(C)=O)CCCN(O)C(=O)/C=C(\C)CCOC1=O (stereo not drawn) | -8.68%
37 | O=C1NC(=S)N/C1=C/c1cc([N+](=O)[O-])ccc1N1CCOCC1 | -62.9%
38 | COc1cc(/C=N/n2c(-c3cc(C)[nH]n3)n[nH]c2=S)cc(OC)c1OC | 18.7%
39 | CCOc1ccc(C(=O)CCC(=O)N2CCC(C(=O)OC)CC2)cc1 | 5.17%
40 | Cc1occc1C(=O)Nc1cccc(C(F)(F)F)c1 | -3.42%
41 | CN(C)c1ccc(NC(=O)CSCc2nc3c(nnn3Cc3ccc(F)cc3)c(=O)[nH]2)cc1 | -5.05%
42 | Cc1cc(=O)oc2c3c(cc(OCC(=O)NCc4ccncc4)c12)OC(C)(C)CC3 | -27.7%
